According to the supplement of paper PMC3334620:
Over roughly 33,000 sequences, “E-score (-0.5 to 0.5)” has its median near -0.041; the highest 2% begin near 0.37. The list shows a part of the results.

Target: T1, Ecm22 (UniProt Q05958)
T1 sequence: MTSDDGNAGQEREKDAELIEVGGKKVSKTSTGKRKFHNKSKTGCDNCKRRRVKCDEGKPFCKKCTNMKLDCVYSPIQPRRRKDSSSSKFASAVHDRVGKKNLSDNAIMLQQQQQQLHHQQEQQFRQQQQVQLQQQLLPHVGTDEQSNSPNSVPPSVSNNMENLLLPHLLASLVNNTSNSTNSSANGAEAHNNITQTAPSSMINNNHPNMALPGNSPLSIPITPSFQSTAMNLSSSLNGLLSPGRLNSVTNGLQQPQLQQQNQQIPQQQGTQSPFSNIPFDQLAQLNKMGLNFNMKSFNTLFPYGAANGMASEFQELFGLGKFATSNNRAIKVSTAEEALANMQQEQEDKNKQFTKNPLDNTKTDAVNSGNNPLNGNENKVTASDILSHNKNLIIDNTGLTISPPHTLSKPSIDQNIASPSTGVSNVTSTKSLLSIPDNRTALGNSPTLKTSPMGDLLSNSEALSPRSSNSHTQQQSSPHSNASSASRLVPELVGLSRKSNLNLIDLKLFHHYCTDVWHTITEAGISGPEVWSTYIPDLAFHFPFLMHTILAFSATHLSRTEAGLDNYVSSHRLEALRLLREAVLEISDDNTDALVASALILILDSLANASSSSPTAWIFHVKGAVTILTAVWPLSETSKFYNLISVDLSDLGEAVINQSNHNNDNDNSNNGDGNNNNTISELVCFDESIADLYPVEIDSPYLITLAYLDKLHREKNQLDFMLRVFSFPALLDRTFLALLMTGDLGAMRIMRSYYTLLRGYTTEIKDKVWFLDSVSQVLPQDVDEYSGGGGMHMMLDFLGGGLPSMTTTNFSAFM
Assay: PBM E-score (8-mer binding enrichment) (E-score (-0.5 to 0.5)); higher = stronger / more preferred TF binding; most listed sequences are background and not binding sites
Conditions: protein concentration: 200 nM; construct: GST-full length
Method in brief: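 Detection of bound protein used fluorescent anti-GST, with scans normalised by masliner. The proteins were GST-tagged yeast transcription factors applied at about 100-200 nM to universal all-10-mer Agilent arrays made double-stranded by primer extension. Each ungapped eight-base word, pooled with its reverse complement, was scored with an E-score from the Universal PBM Analysis Suite.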

Sequence | PBM E-score
GTCATAGA | -0.115
CCGTGAAG | -0.139
CTTTCTGC | -0.0383
GTTCTTAA | -0.0482
CATCGGTA | -0.0221
CTTAATCC | -0.255
GGGGTGAA | -0.304
GCAGTCCC | -0.272
AATTGGAC | -0.153
CCATGCGC | -0.166
AGGACCCA | -0.28
GGCTACGA | 0.424
ACGCAGTC | 0.0272
CATCATCC | -0.0318
AATGTACA | 0.162
CCTAGTAA | -0.341
AACTATAG | -0.195
GGTGCACC | -0.207
CAGAATCA | 0.00782
CTCGACCA | -0.0786
GCCGAATA | 0.218
GCACTTAA | 0.0583

Sequence | PBM E-score
AAACGGAT | 0.33
ACCTGACT | 0.0283
ATTGCTCG | 0.123
CTTTCAAA | 0.0357
CCGTCTAC | 0.0314
CACGCCTC | -0.0418
CCGAGGCA | 0.0444
AAGACAGG | 0.0458
ACCTCGAT | 0.0952
GAGAGTCC | -0.0455
CTTTATGA | -0.231
CCGCGAAG | -0.0264
AATTGTAG | 0.0301
AAAAGCGG | -0.168
CGACGCCA | 0.0866
AGTGTCCA | -0.0514
AGAACTGC | 0.0657
AGATCACG | 0.0249
GACAGTTA | -0.0114
TCCGCGAA | 0.0484
AAATAAAG | -0.0876
ATCACGAA | 0.109

Sequence | PBM E-score
TCACTAAA | 0.0449
CGACTAAA | -0.0294
AGCACAGG | -0.12
AGTAGGTC | 0.168
CCAGGTGC | -0.119
AGGTCCCA | -0.188
CGGGGGAA | -0.141
AGTAGGAA | -0.104
CCGGTCCA | -0.31
AGCTTAGG | -0.31
CAGGTCCG | 0.0456
ACCTAGAC | -0.0874
CTAGTTCC | 0.156
CTCCAAAC | -0.0257
CTCACCTA | -0.205
CACGTTTA | 0.256
GGTGTGCA | -0.262
TACTCCTA | -0.182
GTGAACCA | -0.0791
GTGCCAGA | -0.169
CGGTATAC | 0.259
GGTATGCA | -0.0053

Sequence | PBM E-score
CGCTTGGA | -0.0885
CAGTATGC | -0.15
TATCTCGA | -0.0267
AGTGTAAA | -0.0627
GCCTCACC | -0.149
GGCTCGAC | -0.231
AGAGGCCT | -0.0513
ATCGATGG | 0.00668
AAGGTTGC | -0.355
AAATCTAA | -0.156
AGTTTTGA | -0.129
GCAGCAAA | -0.0527
GATCCTCC | -0.123
ACTCTAAT | -0.272
ACTCCAAC | -0.175
CACGTGTC | -0.132
GGGCCCAA | -0.194
CGGGGGGC | -0.00329
GGGATTGA | -0.213
GTGTTTCA | -0.0721
